Measured values from PMC4336329 (PLoS ONE, 2015).
Out of some 310,000 compounds screened, about 14,000 (4.5%) showed an effect of 50% or more. The effect is printed as a negative number. The list shows a part of the results.

Biological target: human ether-à-go-go-related gene (hERG) potassium channel (human, UniProt Q12809)
Experiment: primary screen, population patch clamp on CHO cells stably expressing hERG
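Also: peak tail current of the secondary pulse compared with the same well before compound.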

Chain of human ether-à-go-go-related gene (hERG) potassium channel (Q12809 whole entry, looked up): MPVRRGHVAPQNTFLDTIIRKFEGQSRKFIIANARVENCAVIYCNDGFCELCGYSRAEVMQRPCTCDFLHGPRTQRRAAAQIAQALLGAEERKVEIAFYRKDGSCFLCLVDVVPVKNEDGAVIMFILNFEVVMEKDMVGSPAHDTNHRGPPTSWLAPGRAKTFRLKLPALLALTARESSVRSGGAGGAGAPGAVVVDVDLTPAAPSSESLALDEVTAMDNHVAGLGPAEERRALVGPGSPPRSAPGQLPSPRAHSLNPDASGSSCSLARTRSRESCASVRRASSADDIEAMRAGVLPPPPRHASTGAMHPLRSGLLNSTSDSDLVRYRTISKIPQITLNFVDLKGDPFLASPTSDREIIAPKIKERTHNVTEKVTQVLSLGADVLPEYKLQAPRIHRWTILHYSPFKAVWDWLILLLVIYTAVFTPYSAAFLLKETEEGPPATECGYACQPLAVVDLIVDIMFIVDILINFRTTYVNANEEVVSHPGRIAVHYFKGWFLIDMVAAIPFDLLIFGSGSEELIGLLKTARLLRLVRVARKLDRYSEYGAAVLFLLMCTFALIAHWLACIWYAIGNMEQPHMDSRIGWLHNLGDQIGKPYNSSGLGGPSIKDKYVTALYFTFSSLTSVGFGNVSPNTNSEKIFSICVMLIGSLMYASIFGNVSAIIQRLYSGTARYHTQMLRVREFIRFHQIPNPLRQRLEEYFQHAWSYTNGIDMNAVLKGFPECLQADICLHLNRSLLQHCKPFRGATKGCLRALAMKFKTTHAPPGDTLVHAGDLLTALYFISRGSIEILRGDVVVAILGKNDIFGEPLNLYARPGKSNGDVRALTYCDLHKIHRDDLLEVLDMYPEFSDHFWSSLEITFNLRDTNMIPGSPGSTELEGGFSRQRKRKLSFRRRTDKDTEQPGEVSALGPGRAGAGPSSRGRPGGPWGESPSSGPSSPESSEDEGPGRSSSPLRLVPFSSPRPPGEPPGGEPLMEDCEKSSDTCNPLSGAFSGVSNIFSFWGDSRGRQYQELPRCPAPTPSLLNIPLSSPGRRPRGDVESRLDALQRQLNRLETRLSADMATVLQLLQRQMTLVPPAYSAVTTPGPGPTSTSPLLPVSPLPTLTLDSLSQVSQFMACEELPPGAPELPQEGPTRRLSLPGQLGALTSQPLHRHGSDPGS

| SMILES | hERG current change (%, negative = inhibition) at 10uM |
| --- | --- |
| N/C(=N\OC(=O)COc1ccc([N+](=O)[O-])cc1)c1ccncc1 | -6.75% |
| COCCN(C(=O)Cn1nnc2ccccc21)C(C(=O)NC1CCCC1)c1cccc(OC)c1OC (centres unmarked) | 5.93% |
| COc1ccc(N(CC(=O)Nc2ccc(C)c(C)c2)C2=NC3CS(=O)(=O)CC3S2)cc1 (centres unmarked) | 12.3% |
| CCCn1[nH]cc(SC)c(=O)c1=O | -5.83% |
| COc1ccc(C(C)=O)cc1COC(=O)C(CO)NS(=O)(=O)c1ccc(Br)cc1 (centres unmarked) | -0.0529% |
| Cn1c(=O)[nH]c(=O)c2c1nc(CN1CCN(c3cccc(Cl)c3)CC1)n2CCc1ccccc1 | -21.8% |
| COc1ccccc1C(=O)NCC(=O)OCCCOC(=O)CNC(=O)c1ccccc1OC | -1.36% |
| CN(C)c1ccc(/C=[N+](\[O-])C(C)(C)/C=N/O)cc1 | -2.54% |
| Oc1c(Cl)cc(Cl)cc1/C=N/NC(=S)NC1CC2C=CC1C2 (centres unmarked) | -19.6% |
| Cc1[nH]c(=O)c(C#N)cc1-c1csc(-c2ccccc2)n1 | 17% |
| COc1cccc2c(Cl)c(CC=C(Cl)Cl)c(C)nc12 | 24.6% |
| O=C(/C=C\c1ccco1)Oc1cccc2cccnc12 | -45% |
| Cc1nn(C(C)C(=O)NCc2cccs2)c(=O)c2nn(-c3ccccc3)c(C)c12 (centres unmarked) | -20.5% |
| CC(C)OC(=O)c1ccc2nc3ccccc3nc2c1 | 21.9% |
| COc1cccc(/C=N\NC(=O)c2sc(N)nc2C)c1OC | 13.5% |
| Cc1ccc2[nH]c3c(=O)n(Cc4ccncc4)cnc3c2c1 | 4.77% |
| COc1nc(OCCNC(=O)Nc2ccccc2)nc(N(C)C)n1 | 0.266% |
| CC1(C)CC(=O)N(c2cc(Cl)ccc2Cl)C(=O)C1 | 10.2% |
| O=C(NCCc1cccs1)C12CN(Cc3ccccc3)CC1C(c1cccc([N+](=O)[O-])c1)=NO2 (centres unmarked) | -21.3% |

| SMILES | hERG current change (%, negative = inhibition) at 10uM |
| --- | --- |
| COc1ccc(CCNC(=O)C2CCN(C(=O)c3ccc(C(C)(C)C)cc3)CC2)cc1 | 0.914% |
| CCc1c(C)[nH]c2c1C(=O)C(CN1CCOCC1)CC2.Cl (centres unmarked) | -7.67% |
| CSc1ccc(S(=O)(=O)NCc2ccccc2C)cc1 | -4.54% |
| O=S(=O)(c1ccc2c(c1)OCCO2)N1CCc2ccccc21 | 12.3% |
| CCN=C(NCC)SC1CC(=O)N(c2ccc(F)cc2)C1=O (centres unmarked) | 2.2% |
| C/C(Cc1ccccc1)=N\NC(=O)CNC(=O)c1ccccc1Cl | 12.5% |
| Cn1c(N)c(C(=O)CSc2nn(-c3ccc(F)cc3)c(=S)s2)c(=O)n(C)c1=O | -3.72% |
| CCC(C(=O)NCC1CCCO1)n1nc(C)c2sc3ccccc3c2c1=O (centres unmarked) | -6.19% |
| CCOC(=O)N1CCC(N2Cc3cccc(C(=O)N4CCN(c5cccc(C)c5C)CC4)c3C2=O)CC1 | -36.7% |
| COc1ccc(OCCOCC(O)CN2CCOCC2)cc1.Cl (centres unmarked) | 4.55% |
| O=C(CCCn1c(=S)[nH]c2ccsc2c1=O)NCc1ccco1 | 18.8% |
| CCN(CC(=O)Nc1ccccc1C(F)(F)F)C(=O)c1ccccc1Cc1ccccc1 | -19.8% |
| CS(=O)(=O)c1ccc2nc(NC(=O)c3ccccc3Cl)sc2c1 | 2.78% |
| CCN1CCN(P2(=O)C=C(c3ccccc3)OC(c3ccccc3)=C2)CC1 | -77.9% |
| C=CCc1ccc(OCCCN2CCCC(C)C2)c(OC)c1.O=C(O)C(=O)O (centres unmarked) | -65.8% |
| Cc1ccc(C)n1-c1nccc(-c2cccs2)n1 | 19.1% |
| O=C(O)C(=O)O.c1ccc2c(c1)ncn2CCCCOc1ccc2c(c1)CCC2 | -9.31% |
| Cc1ccccc1NS(=O)(=O)c1ccc(OCC(=O)N2CCCCC2)cc1 | 5.83% |
| Fc1ccc(C2CC(c3ccccc3)Nc3ncnn32)cc1 (centres unmarked) | -45.9% |

| SMILES | hERG current change (%, negative = inhibition) at 10uM |
| --- | --- |
| CC(C)(C)N(Cc1ccccc1)C(=O)COC(=O)c1ccccc1SCC(=O)N1CCCC1 | -14.7% |
| COc1ccc(Br)cc1CN(C)C(=O)Cc1ccc(OC)c(S(=O)(=O)N2CCOCC2)c1 | -41% |
| CC1(C)CC(=O)N(c2cc(Cl)cc(Cl)c2)C(=O)C1 | 10.5% |
| COc1cc(C2CC(=O)Nc3cc(C)c(C)cc32)cc(OC)c1OC (centres unmarked) | 3.4% |
| O=C(CN1C(=O)NC2(CCCCCCC2)C1=O)N1CCc2ccccc2C1 | -19.1% |
| Cc1cccc(-n2ccc(=O)c(C(=O)Nc3ccc(S(=O)(=O)Nc4nccc(C)n4)cc3)n2)c1 | 23.7% |
| Cc1ccccc1C(=O)Nc1ccc(Br)c(C)n1 | -3.66% |
| CCCCn1c(N)c(N(CC(C)C)C(=O)c2ccc(OCC3CCCO3)cc2)c(=O)[nH]c1=O (centres unmarked) | 2.23% |
| CCOC(=O)/C(=C\c1ccc([N+](=O)[O-])cc1)C(=O)c1cc(C(C)=O)c(Nc2ccccc2)s1 | -3.64% |
| CC(C)c1ccccc1NC(=S)N(C)C | 15.6% |
| COC(=O)Nc1ccc(S(=O)(=O)Nc2ncccn2)cc1 | 25.9% |
| COc1ccc2c(CCNC(=O)Nc3ccccc3)c[nH]c2c1 | 3.74% |
| O=C(NCc1cc(C(F)(F)F)ccc1F)C1CCC(=O)N(C2CCCCCC2)C1 (centres unmarked) | -15.4% |
| COc1ccc(/C=N/NC(=O)c2cc(-c3ccccc3)nc3ccccc23)cc1O | 8.08% |
| CC(=O)N(CN1C(=O)CCC1=O)c1cccc(Cl)c1 | -17% |
| COc1cccc(-n2cc3c(c2-c2ccccc2)c(=O)n(C)c(=O)n3C)c1 | -10.2% |
| Cl.O=C(O)c1ccc(Nc2nc(-c3ccccc3)nc3ccccc23)cc1 | 16.9% |
| CC(=O)Nc1ccc(S(=O)(=O)Nc2ccc(Cc3ccncc3)cc2)cc1 | -16.8% |
